# From PMC6919601, “Identification of Plasmodium dipeptidyl aminopeptidase allosteric inhibitors by high throughput screening” (PLoS ONE, 2019)
# In all, about 110,000 compounds went through this assay and about 230 (0.21%) showed an effect of 50% or more. Some of the results follow.
# Target: DPAP1 (Plasmodium falciparum, UniProt Q8IIJ9)
# Test: primary screen, percent inhibition; read by cleavage of a fluorogenic dipeptide substrate; higher = more effect of the substance
# Set-up: species or system P. falciparum D10 trophozoite lysates; single well
# 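Note: 30 min substrate incubation versus DMSO and 10 µM JCP410 controls.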
# DPAP1, sequence (Q8IIJ9 whole entry, looked up): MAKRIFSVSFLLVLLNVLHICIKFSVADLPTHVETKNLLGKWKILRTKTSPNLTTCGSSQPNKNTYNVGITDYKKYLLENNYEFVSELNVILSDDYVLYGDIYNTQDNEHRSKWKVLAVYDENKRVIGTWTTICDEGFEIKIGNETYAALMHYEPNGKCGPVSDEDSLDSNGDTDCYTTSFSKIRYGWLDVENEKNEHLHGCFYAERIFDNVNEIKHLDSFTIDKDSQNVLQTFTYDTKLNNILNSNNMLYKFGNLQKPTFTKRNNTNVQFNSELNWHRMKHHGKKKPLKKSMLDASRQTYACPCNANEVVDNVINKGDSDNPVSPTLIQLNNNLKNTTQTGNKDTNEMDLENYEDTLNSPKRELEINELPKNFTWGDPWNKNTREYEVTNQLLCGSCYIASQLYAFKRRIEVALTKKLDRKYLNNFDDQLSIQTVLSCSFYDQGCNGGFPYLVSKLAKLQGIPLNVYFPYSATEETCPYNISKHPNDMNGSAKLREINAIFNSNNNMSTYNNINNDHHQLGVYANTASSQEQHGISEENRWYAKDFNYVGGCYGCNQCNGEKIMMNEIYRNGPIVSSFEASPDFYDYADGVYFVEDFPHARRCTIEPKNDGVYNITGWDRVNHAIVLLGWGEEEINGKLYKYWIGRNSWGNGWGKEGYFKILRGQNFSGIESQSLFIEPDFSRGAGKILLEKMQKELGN
row,Structure (SMILES),% Inhibition @ 10 uM [%]
1,COc1ccc(-n2nnnc2C2CCNCC2)cc1,-3.49
2,O=C(c1cccs1)N1CCCc2ccccc21,-4.21
3,CN(C)CCCN(C(=O)COc1ccccc1)c1nc2ccc(F)cc2s1,5.62
4,CCCCCCN1C(=O)C(O)=C(C(C)=O)C1c1ccc(OC)c(OC)c1 (centres unmarked),-0.467
5,CCOC(=O)c1c(NCc2ccc(N(C)C)cc2)sc2c1CCCC2,5.35
6,Cn1c(=O)n(CC(=O)Nc2ccc(OC(F)(F)Cl)cc2)c2ccccc21,-1.52
7,CC(C)(C)c1ccc(-c2nnc(-c3sc4ccccc4c3Cl)o2)cc1,0.219
8,CC1CCN(c2nn3c(=O)c(C(=O)N4CCN(Cc5ccc6c(c5)OCO6)CC4)cnc3s2)CC1,-4.75
9,NC(=O)C1(N2CCCCC2)CCN(S(=O)(=O)c2ccc(OC(F)(F)F)cc2)CC1,1
10,CC(C)(C)C(/C=C\c1ccc(Cl)cc1Cl)n1nnnc1C1(Nc2ccc(Cl)cc2)CCCC1 (centres unmarked),-3.98
11,CCOC(=O)c1[nH]c(C)c(C(=O)NCc2ccccn2)c1C,-5.27
12,CCOc1ccc(CC(=O)Nc2ccc(CC#N)cc2)cc1OCC,2.01
13,COc1cccc(N(CC(=O)NCC2CCCO2)S(=O)(=O)c2ccc(C)cc2)c1 (centres unmarked),2.42
14,Cc1nn(C(=O)CCC(=O)NCCc2ccccc2)c2ccccc12,-4.71
15,CC(C)c1ccc(S(=O)(=O)n2nnc3ccccc32)cc1,0.146
16,Cc1cccc(C(=O)Nc2ccc(OC(F)(F)F)cc2)c1,1.57
17,O=C(CCN1C(=O)c2ccccc2S1(=O)=O)Nc1cccc(C(F)(F)F)c1,4.96
18,COc1ccc2ccccc2c1CNCCNC(=O)c1nonc1N,-5.33
19,CCn1cc(CNC(=O)Nc2ccc(C)cc2)c(C)n1,0.605
20,CN(C)CCN(C)C1CCC(c2ccccc2)CC1 (centres unmarked),-1.5
21,COCc1[nH]nc2c1C(c1ccc(Cl)cc1)C(C#N)=C(N)O2 (centres unmarked),2.01
22,Cc1ccccc1NC1SC(=O)N(Cc2cccc(C(=O)O)c2)C1=O (centres unmarked),-10.2
23,COc1ccc(N(CC(=O)Nc2ccc3ccccc3c2)S(C)(=O)=O)cc1,1.02
24,O=C(CCCCC(=O)Nc1ccc(Cl)cc1)Nc1ccc(Cl)cc1,0.536
25,C=CCc1ccccc1OCc1nc2ccccc2[nH]1,-2.92

row,Structure (SMILES),% Inhibition @ 10 uM [%]
1,Cc1ccccc1CN1CCN(c2ncnc3c2cnn3Cc2ccc(Cl)cc2)CC1,4.77
2,CC(NC(=O)Cn1ncc2c3ccccc3n(C)c2c1=O)c1ccccc1 (centres unmarked),-3.67
3,Cc1sc(NC(=O)c2ccc(F)cc2)c(CN2CCN(C(=O)c3ccco3)CC2)c1C,-4.72
4,N#CC1=C(N)OC2=C(C(=O)CC(c3ccccc3)C2)C1c1ccc(-c2ccccc2)cc1 (centres unmarked),0.317
5,COc1cccc(CN(C(=O)c2cc3ccccc3oc2=O)C2CCS(=O)(=O)C2)c1 (centres unmarked),0.366
6,C=CCNC(=O)C(C)Sc1ccc(C)cc1 (centres unmarked),-0.996
7,O=C(O)CCCN1C(=O)S/C(=C\C=C\c2ccccc2)C1=O,-1.92
8,CC(C)COc1ccc(C(=O)Nc2nnc(S(=O)(=O)N3CCC(C)CC3)s2)cc1,-3.51
9,COC(=O)C1=C(O)/C(=C/c2ccc(O)cc2)N=C1C,-1.6
10,CCc1ccc(-c2csc(-c3cccnc3)n2)cc1,-0.185
11,COc1cccc(-c2noc(-c3cccnc3)n2)c1,-8.21
12,O=C(c1ccccc1F)N1CCN(S(=O)(=O)c2ccc3c(c2)OCCO3)CC1,0.238
13,Cc1cc(C)cc(NC(=O)CN(CCc2ccccc2)S(C)(=O)=O)c1,1.62
14,Cc1ccc2oc(=O)c3cnn(CC(=O)N4CCN(Cc5ccc6c(c5)OCO6)CC4)c3c2c1,1.62
15,COc1cc(C2=NOC(C(=O)NC3CCCC3)C2)cc(OC)c1OC (centres unmarked),-2.16
16,Cc1cccc(C)c1NC(=O)CSCC(=O)Nc1ccc2ccccc2c1,-3.26
17,Cc1ccc(-c2[nH]nc3nc(-c4cc(Cl)ccc4O)cc(C(=O)O)c23)cc1,6.13
18,COCCCNC(=O)C1CCN(c2nn3c(=O)cc(C)nc3s2)CC1,-3.79
19,CCN(CC)C(=O)c1ccc(CS(=O)(=O)c2ccccc2C)o1,-4.96
20,Cc1ccc(C(C)C)c(OCC(O)CN2CCN(Cc3ccccc3)CC2)c1 (centres unmarked),4.79
21,C=CCOc1cccc(C2C(C(=O)c3ccc4c(c3)OCCO4)=C(O)C(=O)N2Cc2ccco2)c1 (centres unmarked),-2.74
22,N#CC1=C(N)N(c2nc[nH]n2)C2=C(C(=O)CCC2)C1c1cccc(Cl)c1 (centres unmarked),-4.6
23,Cc1ccc2c(cnn2C(=O)CCC(=O)N2CCN(C)CC2)c1,5.39
24,O=C1CCCC2=C1C(c1ccc(O)cc1)Nc1ccc3ncccc3c12 (centres unmarked),0.937
25,Cc1occc(=O)c1OC(=O)c1ccc(Cl)cc1,-1.52
